Assay results published in PubChem BioAssay AID686978 (National Center for Advancing Translational Sciences (NCATS), 2013).
The campaign covered roughly 420,000 compounds. About 64,000 (15%) were called active. This list was built around the results that the source calls inconclusive (neither active nor inactive); the mix of calls is not that of the screen. Calls come from the whole dose curve; as a rule, active = well fitted inhibition curve with a large enough effect; inconclusive = small, poorly fitted or top-dose-only effect; inactive = flat fitted curve, though single readings scatter. No potency is given beside an inconclusive call; the fits are too rough.

assay: qHTS for Inhibitors of human tyrosyl-DNA phosphodiesterase 1 (TDP1): qHTS in cells in absence of CPT; conditions: DT40 Tdp1-/- hTDP1 cells, no CPT, ATP luminescence, 48 h; activity change, negative = growth inhibition: at 46.2 µM (top of the series); note: nearly all actives have a fitted effect of over 55% in size
Procedure, shortened: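 Seeded 400 DT40-hTDP1 cells/well (vehicle DMSO, no 20 nM CPT); pinned compounds; ≥48 hr at 37 °C; CellTiter-Glo luminescence as viability measure.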
% is set by controls: 0 for no effect and ±100 for the full control effect; potency is the fitted concentration of half-maximal effect; tags give direction and shape of the fitted curve.

SMILES | activity change, negative = growth inhibition | Potency
c1c[nH]c(CN2CCN(Cc3ncc[nH]3)CC2)n1 | inactive: -13.1% | 
Cc1c(C(=O)N2CCCCC2)c(S(=O)(=O)N2CCc3ccccc32)c(C)n1C | inactive: 11.5% | 
COc1ccccc1Cn1c(=O)c2ccccc2n2c(SCc3csc(C)n3)nnc12 |  | inconclusive [inhibitor, single point]
COC(=O)c1ccc(CNC(=O)CSc2nc3ccccc3[nH]2)cc1 | inactive: -24.1% | 
CC/C(=N\Nc1ccnc2cc(Cl)ccc12)c1ccc(O)cc1 |  | inconclusive [inhibitor, single point]
O=C(Nc1ccc(-c2cn3c(n2)SCC3)cc1)c1ccco1 | inactive: -29.1% | 
Cc1cc(Br)cn2c(Cc3ccsc3)c(-c3ccccc3)nc12 |  | inconclusive [inhibitor, single point]
CS(=O)(=O)N(Cc1ccc(Cl)cc1)c1ccc(C(=O)N/N=C/c2cc3ccccc3nc2Cl)cc1 |  | active: 23.1 µM
Cc1cc(C(=O)Cn2nnc(-c3ccc(Cl)cc3)n2)c(C)n1CC1CCCO1 (stereo unspecified) |  | inconclusive [inhibitor, single point]
CCOc1ccccc1CNC(=O)c1cn(-c2ccc(OC)cc2)c(=O)c2ccccc12 |  | inconclusive [inhibitor, single point]
COc1ccc(N(C)S(=O)(=O)c2ccc3c(c2)NC(=O)CC(=O)N3)c(OC)c1 | inactive: 19.4% | 
CCOc1ccc(N(Cc2cc3cc(OC)ccc3[nH]c2=O)C(=O)C2CCCO2)cc1 (stereo unspecified) |  | active: 18.4 µM
Clc1cccc[n+]1CCCCCC[n+]1ccccc1Cl | inactive: -98.5% | 
CCO[C@@H]1OC(C(=O)NCc2nc3ccccc3[nH]2)=C[C@H](c2csc3ccccc23)[C@H]1CCCO |  | active: 23.1 µM
COc1ccc(C(=O)N2CCCCC2c2cc(C(=O)NCc3ccc(Cl)c(Cl)c3)no2)cc1 (stereo unspecified) |  | inconclusive [inhibitor, single point]
CC1(C)Cc2c(C#N)c(NCC3CCCO3)nc(-c3ccco3)c2CO1 (stereo unspecified) |  | inconclusive [inhibitor, single point]
CCOC(=O)C(c1ccccc1)C(Nc1cc(C(F)(F)F)cc(C(F)(F)F)c1)c1ccccn1 (stereo unspecified) |  | inconclusive [inhibitor, single point]
COc1ccc(/C=C/c2cc(C(=O)O)c3ccccc3n2)cc1 |  | active: 14.6 µM
CN1CCC[C@@H]1CCO[C@](C)(c1ccccc1)c1ccc(Cl)cc1 |  | active: 26.6 µM
COC(=O)C1CCN(C(=O)c2ccc(Cl)c(S(=O)(=O)NCc3ccco3)c2)CC1 | inconclusive: -33.5% [inhibitor] | 
COCC1CCCCN1C(=O)c1ccc2nc(Cc3ccc(OC)c(OC)c3)oc2c1 (stereo unspecified) |  | inconclusive [inhibitor, single point]
Cc1cccc(NC(=O)CSc2nc(=O)n(Cc3ccco3)c3c2CCC3)c1C |  | inconclusive [inhibitor, single point]
CCOc1ccc(NC(=O)[C@H]2O[C@@H]3OC(C)(C)O[C@@H]3[C@H]3OC(C)(C)O[C@H]32)cc1 |  | inconclusive [inhibitor, single point]

SMILES | activity change, negative = growth inhibition | Potency
COc1ccc(NC(=O)c2oc3ccccc3c2NC(=O)C(C)(C)C)cc1 |  | inconclusive [inhibitor, single point]
CCc1nn(CC(=O)NCc2ccccc2Cl)c(=O)c2cc3ccccc3n12 |  | inconclusive [inhibitor, single point]
O=C(Cc1ccccc1)NCC(=O)N1CCN(c2ccccc2F)CC1 | inactive: 3.27% | 
[O-][n+]1cccc2ncc3cscc3c21 | inactive: 8.59% | 
CCN(CC)S(=O)(=O)c1ccc(Nc2nc3ccccc3n3nnnc23)cc1 |  | active: 16.4 µM
N#C/C(=C\c1cc([N+](=O)[O-])c(N2CCOCC2)cc1N1CCOCC1)c1nc2ccccc2[nH]1 |  | active: 23.1 µM
Cc1nn(Cc2ccccc2)c(C)c1C(=O)NCCN1C(=O)S/C(=C\c2ccc(F)cc2)C1=O |  | inconclusive [inhibitor, single point]
O=c1c(N2CCN(c3cccc(Cl)c3)CC2)csc2ccccc12 |  | inconclusive [inhibitor, single point]
COc1ccccc1-c1cc(C(F)(F)F)nc(N2CCN(c3ccc(F)cc3)CC2)n1 |  | inconclusive [inhibitor, partial curve]
O=C(NN1CCOCC1)c1ccc(Cl)cc1 | inactive: -16.2% | 
Cc1ccnc2nc(C(=O)Nc3nnc(-c4ccc(Cl)cc4)o3)nn12 | inactive: 1.12% | 
COc1ccc(-c2nc(N3CCN(C)CC3)sc2-c2ccc(OC)cc2)cc1 |  | active: 29.1 µM
COC(=O)Cc1c(C)c2ccc(OCC(=O)N3CCC(C)CC3)c(C)c2oc1=O |  | active: 14.6 µM
Cc1ccc2cc3cc(C(=O)N4CCN(c5ccccc5)CC4)oc3nc2c1 |  | inconclusive [inhibitor, partial curve, poor fit]
CCOC(=O)N1CCc2c(sc(NC(=O)C3COc4ccccc4O3)c2C(N)=O)C1 (stereo unspecified) |  | inconclusive [inhibitor, single point]
CCOc1ncccc1C(=O)NCCc1ccc(S(N)(=O)=O)cc1 | inactive: -2.35% | 
Cc1cc(C)cc(NC(=O)C(=O)NCCCN2CCOCC2)c1 |  | inactive
Nc1ccc(S(=O)(=O)N2CCC(Cc3ccccc3)CC2)cc1 | inactive: -29.4% | 
COc1ccc(/C=C/c2nnc(NC(=O)COc3ccc(Cl)cc3)s2)cc1 | inconclusive: -33.8% [inhibitor] | 
CCc1ccc(Oc2c(C(F)(F)F)oc3c(CN4CCN(CC)CC4)c(O)ccc3c2=O)cc1 |  | inconclusive [inhibitor, single point]
O=C(COC(=O)/C=C/c1ccc(C(F)(F)F)cc1)NCC1CCCCC1 |  | inconclusive [inhibitor, single point]
CC1CCCCN1CCCNC(=O)c1ccc2c(c1)sc1nc(-c3ccc(F)cc3)cn12 (stereo unspecified) |  | active: 3.26 µM
CC(C)(C)c1ccc(/C=C/C(=O)Nc2nncs2)cc1 |  | inconclusive [inhibitor, partial curve, poor fit]
